# The campaign covered roughly 390,000 compounds. About 4,700 (1.2%) were called active. The inconclusive results got no clear call from the source; some entries with a clear call stand among them for comparison. The call rests on the fitted dose curve; in most records, active means well fitted inhibition curve with a large enough effect; inconclusive means small, poorly fitted or top-dose-only effect, or another doubt; inactive means no such curve, though single readings can be large or run the other way. Where the call is inconclusive, the potency comes from a doubtful curve fit.
# Target: DNA polymerase eta (Homo sapiens) (UniProt Q9Y253)
# Experiment: qHTS for Inhibitors of Polymerase Eta
# Conditions: recombinant Pol eta, fluorescent DNA replication assay; series mostly up to 114 µM
# Outline: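 Pol eta at 10 nM preincubated with compounds 15 min at room temperature; reaction started with fluorescent substrate (50 nM final) and read kinetically at 0 and 10 min.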
# Potency means the concentration at half of the fitted maximal effect; tags describe the fitted curve by direction and shape.
row,SMILES,Potency
1,COc1cccc(-c2nn(Cc3ccccc3)cc2C(=O)O)c1,"inconclusive: 89.1 µM [inhibitor, partial curve, poor fit]"
2,CC(C)(C)C(=O)OCC12CCC(O1)C1(C)C(=O)OCC21 (centres undefined),inactive
3,Cc1ccc(N2C(=O)NC(=O)/C(=C\c3cc(C)n(-c4cc(C(=O)O)cc(C(=O)O)c4)c3C)C2=O)cc1,active: 7.94 µM
4,COc1ccc(-n2c(/C=C/c3ccc4c(c3)OCO4)nc3ccccc3c2=O)cc1,"inconclusive: 14.1 µM [inhibitor, partial curve]"
5,O=C(c1cc2cc(Br)ccc2[nH]1)N1CCC2(CC1)OCCO2,"inconclusive: 39.8 µM [inhibitor, single point]"
6,COc1cccc(N2C(=O)NC(=O)/C(=C/c3ccc([N+](=O)[O-])s3)C2=O)c1,active: 14.1 µM
7,Cc1cc(C(=O)N=Nc2c(O)n(C)c3ccccc23)c(C)o1,"inconclusive: 28.2 µM [inhibitor, partial curve]"
8,Cc1c(N=Cc2c(O)n(Cc3ccco3)c(=O)[nH]c2=O)c(=O)n(-c2ccccc2)n1C,active: 17.8 µM
9,CC/C(=N\NC(=O)c1ccccc1O)c1c(O)n(Cc2ccccc2)c(=O)[nH]c1=O,"inconclusive: 126 µM [inhibitor, partial curve, poor fit]"
10,CCCN(CCC)C1CCc2cccc(O)c2C1 (centres undefined),inactive
11,CN1C(=O)NC(=O)/C(=C/c2ccc([N+](=O)[O-])o2)C1=O,active: 3.55 µM
12,CCOc1ccc(CC(=O)NCCc2csc3nc(-c4ccccc4F)nn23)cc1,"inconclusive: 89.1 µM [inhibitor, partial curve, poor fit]"
13,CC[n+]1c(/C=C/C=C/c2ccc(N(C)C)cc2)sc2ccccc21,"inconclusive: 35.5 µM [inhibitor, full curve]"
14,CN(C)c1ccc(/C=C2/C(=O)NC(=O)N(Cc3ccco3)C2=O)cc1,active: 6.31 µM
15,COc1ccc(/C=C2\C(=O)NC(=O)N(Cc3ccccc3)C2=O)c(OC)c1OC,inactive
16,CCCCCCCCc1ccc(O)cc1,inactive
17,CC(C)OC(=O)c1c(N)n(Cc2ccco2)c2nc3ccccc3nc12,"inconclusive: 31.6 µM [inhibitor, partial curve]"
18,O=C1NC(=O)N(c2ccc(Cl)cc2)C(=O)/C1=C/c1coc2ccc(O)cc2c1=O,"inconclusive: 39.8 µM [inhibitor, full curve]"
19,Cc1ccc(/C=C2\C(=O)NC(=S)N(c3ccc(F)cc3)C2=O)s1,"inconclusive: 56.2 µM [inhibitor, partial curve, poor fit]"
20,Cc1cc(/C=C2\C(=O)NC(=O)N(c3ccccc3)C2=O)c(C)n1-c1ccc(C(=O)O)c(Cl)c1,active: 10 µM
21,COc1ccc2c3c([nH]c2c1)C(C)NCC3 (centres undefined),"inconclusive: 79.4 µM [inhibitor, partial curve, poor fit]"
22,CN1CC[C@@]2(C)c3cc(O)ccc3N(C)C12 (some centres undefined),"inconclusive: 28.2 µM [inhibitor, partial curve]"

row,SMILES,Potency
1,CC[C@@]1(O)C(=O)OCc2c1cc1n(c2=O)Cc2cc3c(N)cccc3nc2-1,active: 22.4 µM
2,CCOC(=O)c1c(-n2c(C)cc(/C=C3\C(=O)NC(=O)N(C)C3=O)c2C)sc2c1CCCC2,active: 79.4 µM
3,C=CCN1C(=O)/C(=C/c2cc(C)n(-c3ccccn3)c2C)C(=O)NC1=S,"inconclusive: 35.5 µM [inhibitor, single point]"
4,N#Cc1c(/N=C/C2C(=O)NC(=S)NC2=O)sc2c1CCCC2,inactive
5,COc1ccc2c(c[n+](C)c3c4cc5c(cc4ccc23)OCO5)c1OC,"inconclusive: 44.7 µM [inhibitor, partial curve, poor fit]"
6,Cc1cc(C=C2C(=O)N(C)C(=S)N(C)C2=O)c(C)n1-c1cccnc1,"inconclusive: 20 µM [inhibitor, full curve, poor fit]"
7,COC(=O)c1ccc(N2C(=O)CC(N3CCC(O)(c4ccc(Br)cc4)CC3)C2=O)cc1 (centres undefined),"inconclusive: 44.7 µM [inhibitor, single point]"
8,O=C(c1ccc2c(c1)N(Cc1ccc(F)cc1)C(=O)c1ccccc1S2)N1CCC2(CC1)OCCO2,inactive
9,O=[N+]([O-])c1ccc(N2CCOCC2)c2c1no[n+]2[O-],"inconclusive: 89.1 µM [inhibitor, single point]"
10,c1ccc2c(c1)[I+]c1ccccc1-2,inactive
11,O=C1CC=C2C3CC4N(CCC45c4cc(O)c(O)cc4N1C25)CC3=CCBr (centres undefined),"inconclusive: 6.31 µM [inhibitor, full curve, poor fit]"
12,C=C1C(=O)O[C@@H]2C[C@@H](C)[C@H]3C=CC(=O)[C@]3(O)C[C@@H]12,active: 31.6 µM
13,O=C(Nc1ccc(Oc2ccc(Cl)cc2)c(Cl)c1)c1cc(I)cc(I)c1O,"inconclusive: 56.2 µM [inhibitor, partial curve, poor fit]"
14,O=C1CC(=O)N(Cc2ccccc2)C(=O)N1CCCCCCN1C(=O)CC(=O)N(Cc2ccccc2)C1=O,"inconclusive: 89.1 µM [inhibitor, single point]"
15,O=C1NC(=O)C(=Cc2ccc(Sc3ccccc3)o2)C(=O)N1,"inconclusive: 100 µM [inhibitor, partial curve, poor fit]"
16,CN1C(=O)C(=CN2CCN(C(=O)c3ccco3)CC2)C(=O)N(C)C1=S,inactive
17,CCN1C(=O)/C(=C/c2ccc(N(CC)CC)cc2OC)C(=O)NC1=S,inactive
18,COc1cc(C=C(C#N)C#N)cc(O)c1O,active: 11.2 µM
19,COc1cccc(NC(=O)c2ccc3c(=O)n4nc(Nc5ccccc5OC)sc4nc3c2)c1,"inconclusive: 89.1 µM [inhibitor, single point]"
20,CCCCn1c(O)c(C=NCCCn2ccnc2)c(=O)[nH]c1=O,inactive
21,Cc1cccc(NP(=O)(Oc2ccccc2)Oc2ccccc2)c1C,"inconclusive: 89.1 µM [inhibitor, partial curve, poor fit]"
22,N#CC1=C(N)Oc2n[nH]c(-c3cccs3)c2C1c1ccsc1 (centres undefined),"inconclusive: 22.4 µM [inhibitor, partial curve]"

# — PubChem BioAssay AID588591 (National Center for Advancing Translational Sciences (NCATS), 2011)
